Assay results taken from the supplement of paper PMC10681739.
The full ranking holds about 4,000 sequences; the median of “arbitrary fluorescence units” is about 830, and the highest 2% start at about 6,500. This part holds few or none of the hits.

These sequences were tested against RUNX1 (UniProt Q01196) (assay: RUNX1 binding intensity (PBM fluorescence), RUNX1 alone (arbitrary fluorescence units); higher = stronger binding). Details: RUNX1 concentration 2 nM; ETS1 concentration 0 nM.
Procedure: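 gcPBM on 36-bp genomic-derived probes (partner site mutated) containing one RUNX1 site and no ETS1 site. Recombinant human RUNX1 (2 nM) was incubated alone or with ETS1 (25 nM) and detected by anti-RUNX1 antibody fluorescence. Values are medians over 4 replicate spots (not normalised). The probes sit in constant array flanks that are not printed.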
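Further: Full-length recombinant human RUNX1 bound to double-stranded DNA microarray spots, detected with an Alexa488-labelled secondary antibody after the anti-RUNX1 primary, read as scanned spot fluorescence.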

Sequence of UniProt Q01196 (Q01196 whole entry): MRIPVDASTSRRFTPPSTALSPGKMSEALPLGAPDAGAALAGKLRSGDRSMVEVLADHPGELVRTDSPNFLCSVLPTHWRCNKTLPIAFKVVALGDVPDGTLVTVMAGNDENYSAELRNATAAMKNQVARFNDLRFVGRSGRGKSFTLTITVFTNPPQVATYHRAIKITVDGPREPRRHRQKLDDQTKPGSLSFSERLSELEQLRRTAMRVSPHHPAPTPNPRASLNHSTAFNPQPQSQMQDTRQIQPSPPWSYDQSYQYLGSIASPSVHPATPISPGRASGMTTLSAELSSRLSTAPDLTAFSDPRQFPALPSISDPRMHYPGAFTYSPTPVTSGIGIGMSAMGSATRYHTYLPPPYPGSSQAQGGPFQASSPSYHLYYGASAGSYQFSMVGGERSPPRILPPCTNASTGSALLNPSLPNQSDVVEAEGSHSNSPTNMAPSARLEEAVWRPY

Sequence | RUNX1 binding intensity
CTGTCAGCATGTTGGCTTGTGAGCCCACAATCCTCT | 706
TTGAAGCTCTCCCGCAGAAGCTACAGCCTCTGGAAA | 789
AGGGACCCGTATGTCTGGTCTGCGGCTGCTCCTCTA | 822
AGTCCCGCAGCCCTGCGACCAGCGGCCTGAAGCAGC | 772
GCCAAGGCCTGCCGCCGAGTTGGTTTTTGGGTTGTT | 850
TGAGGTGCTAAACCACCAAGCACTTGCTGCTGTTAG | 744
GAGAGCCTGCGGCTGGCGTTTGAGGCGTATGGCAGT | 689
GCCGGCTCCACTCCCGCAGTCACTTGCTGCGTCCCT | 801
TTCTTACGGCAACTGCTGCTGAGGCTGCGGTGGCGG | 642
CCCTGTGGTTCGCGGGCGAAGCGCCTCCTCTAGCTG | 1260
GCCACACTCCCGGCGGGGCTGCGACCGCAGAGGGGC | 1040
ACTGCCGTAAGAAAGCTGCCACCGCACGCAGTAGGG | 743
AAAGAGAAAGGAGACAAAGTATAGCACCACAGTGAG | 751
TTGTCTGCATGCTGTGCTGTGTGGTAGCTCTGGGTT | 644
TTTGCGGGCGGGCGGCGGCGAAGGCGATCGGGCCCG | 968
GCCTTTCTGGAGCCACAAAGACAGAAAGAGAGCGTC | 791
CCATCCAGCAAGCTTATGGTGCAACCGCAGTGTGCC | 928
TCAAAACCTGACCACAGTATTTCGTGTAGTTTCTAT | 1270
AAATTTACCACATCAACAAAACGGGACACTGGAACC | 1330
AGAACAGGGTGTTCTGAGTACAGCATGAACCTCAAA | 723
TGTTGGACCACAGGCAATTGCCTGTTCAGAAAGAGA | 778

Sequence | RUNX1 binding intensity
CTCCATTATTCCAGCCAGGTGCCCTTGTGGGATAAG | 819
AATCTGAAACAGGCAATAAGTCTGTGGTTGTGTGTT | 702
GGGCTGGGGCCGCAGCGGGGCTTACGGCCCCCCAGG | 678
CGGGGCGAAACCACTGTTGGCTCATTTACGGGTGGG | 873
ACGCCTGTGGTCCCAGCTACTCAGCAAGCTGAGGTG | 831
GTGTGTGGGTGGGGAGAGCTGCAGCCACAGTAAACG | 790
AGTGGGTGGTTTTCAGCCCTTATCTTGCTGGACCAT | 788
GGCCGAAGCTGCCGCTGCCTTGCGCCCCCACACACG | 870
CATCAGTTTGTGGCTGCCGAGTGCTTGCTGGGAATT | 799
CCTGTCCTGACCGCGGCGAATAACATTGCCTACAGC | 1190
AAAGTATCTTCTGTGGTGAATCGGAGACAAAACTCA | 827
CTTTGCAGCAAGCTGGGGTTCACCCACAGCCTTGTT | 789
AGGTTCCTGCGGTGGCCGCGTGCTGGTTCCATTAGC | 884
CTGTGGTGACCCGGCAGGAGTAGCGTCGGGAGCAAT | 709
TGGGGCTAGGCTTACGGGGCTCTGCGGTCCTCGGCC | 742
GGTCTGTGGCCCTGGGCACCTCCATACGCCGCGGCG | 763
AAATTCTTGAGGTTACTTTGGAGGCGTATGGATGGG | 835
CACCGACCGTAAGGGCCCCAAGGATCCCCGCAGCAG | 777
GGGGGGAGGTGGCGCCACCAGGTGGTGGTTGCTTTG | 782
ACTGCGGCTGAGACACAGAAGGGAAAGGCTGTGACC | 762
GACTGGCTGCGGGAGGGGTTTAGGCTTCGGCCCCCA | 855

Sequence | RUNX1 binding intensity
GGGCGCCCGCGGTTTAGAAACTACATTGCCCATGAG | 1330
CAAGCCACCTCCTTTCTTGCTCCCACAACCTGTGTT | 1220
GAAGTGGTGGCGGCCGCAGGCCAGGCAGGACAAGTG | 726
GAGGGAGGTCCTCGGGCGTCTCCTTGTGGCGGCGGG | 683
AAACCAGAGGCAGTGGATTCCAACCACAAACCTCAC | 1040
CTCCTGAGGCAGTAGTTACAGACACCACAGCGGAGG | 832
CAACTATAACCACAACTACGGCCAACAGCCGAGTGC | 3470
TGCTTAGCGGGACGTGCTTACACCACAAAACAAGAC | 730
CGGCACCACTGCCGAGTGGAGCACGCGGTGGCCGAG | 995
CTCGGCGCCCGCGGTCCATGGACCCGAACCTCGGGC | 735
CTTCCTTCCCTTCGTTCTGCTCCCTCCCACAGCCGC | 2240
CTGTGGTGTCGGAGGCTGTGACGTCGGGAGGTAAGT | 799
CAGCAAGCCACAGGCAGTAAACATTGCCTGTCCCCA | 880
CCACCCACTTGCTGCCCTAGCTAGTGTGGTATTTTT | 906
GACTGGTTGCCTGGTTTTGATGTGGTTTAGAGAAAA | 1060
GTTTTCAGGTTGTGGTGCGTGTAGGAGGTGCTCTGG | 939
CCTGTGGTGAGGCCAGCAGAGGCTCAGCAAGGGAGC | 728
CTGGGCAGCAAAGGACCTGGCCTCCCAGCCCACAGG | 778
CAACCAGCCCCACAGCTGAGCTTGCGCTCAGCTCTC | 929
CAGCGGCGGCTGCGGCGGTGGCGGCAGTGGAGTGGG | 832
